Assay results from ChEMBL document CHEMBL5154759, “Discovery of Aryl Benzoyl Hydrazide Derivatives as Novel Potent Broad-Spectrum Inhibitors of Influenza A Virus RNA-Dependent RNA Polymerase (RdRp)” (J Med Chem, 2022).

The compounds below were run on Influenza A virus (assay: microbe, parasite or virus in culture). Details: (A/PR/8/34) H1N1, MDCK, 48 h.
For `O=C(NNc1c(Br)cccc1Br)c1ccc(N2CCOCC2)cc1`, the EC50 was 53 nM. With `CN(C)c1ccc(C(=O)NNc2c(Br)cccc2Br)cc1` the EC50 was 461 nM. `O=C(NNc1c(Br)cccc1Br)c1ccccc1` was tested, and the EC50 was 143000 nM. `COc1ccc(C(=O)NNc2c(Br)cccc2Br)cc1` gave an EC50 of 4900 nM. In the case of `CC(C)(C)c1ccc(C(=O)NNc2c(Br)cccc2Br)cc1`, the EC50 is reported as 74 nM. With `CCc1ccc(C(=O)NNc2c(Br)cccc2Br)cc1` the EC50 was 180 nM. Compound `CCOc1ccc(C(=O)NNc2c(Br)cccc2Br)cc1` has an EC50 of 57 nM.
